Experiment [1] addresses E3 ubiquitin‐protein ligase parkin (PRKN), endogenous in PANC‐1 cells (human (endogenous in PANC-1)) (UniProt O60260). As to the kind of experiment: co-IP; PANC-1 cells, NP-40 lysis buffer with 1% PMSF, antibody overnight at 4 °C, magnetic beads 4 h at 4 °C, western blotting (Figure 5A top).
The target is the same in experiment [2]. Nature of the experiment: co-IP; PRKN immunoprecipitated from PANC-1 cells transduced with HACD2, PKM2, PRKN or a vector control; blots for PKM2 and HACD2 (Figure 5B).
The target of experiment [3] is Flag‐PKM2 expressed in HEK‐293T cells (UniProt P14618). Nature of the experiment: co-IP; HEK-293T cells expressing the constructs, NP-40 lysis buffer with 1% PMSF, antibody overnight at 4 °C, magnetic beads, western blotting (Figure 5A middle and bottom, Figure 5H).
Experiment [4] concerns the target E3 ubiquitin‐protein ligase parkin (PRKN), endogenous in PANC‐1 cells (human (endogenous in PANC-1)) (UniProt O60260). Nature of the experiment: co-IP; anti-PRKN antibody, PANC-1 cells with rising doses of His-HACD2 (Figure 5C).

By UniProt entry, the sequences of proteins in these tests, tags left out.
UniProt O60260: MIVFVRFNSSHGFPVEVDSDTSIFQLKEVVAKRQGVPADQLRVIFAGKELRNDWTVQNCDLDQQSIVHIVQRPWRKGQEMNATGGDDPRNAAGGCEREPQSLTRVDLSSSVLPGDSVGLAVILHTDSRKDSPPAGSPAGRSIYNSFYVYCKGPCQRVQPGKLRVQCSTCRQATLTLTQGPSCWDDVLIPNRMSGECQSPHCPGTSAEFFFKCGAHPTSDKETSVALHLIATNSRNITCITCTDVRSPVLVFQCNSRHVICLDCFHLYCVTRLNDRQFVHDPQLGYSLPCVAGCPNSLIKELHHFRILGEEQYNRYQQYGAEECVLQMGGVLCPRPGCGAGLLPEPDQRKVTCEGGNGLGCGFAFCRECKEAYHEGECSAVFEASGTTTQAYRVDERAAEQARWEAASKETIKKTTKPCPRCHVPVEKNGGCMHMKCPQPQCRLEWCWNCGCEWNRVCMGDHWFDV
UniProt P14618: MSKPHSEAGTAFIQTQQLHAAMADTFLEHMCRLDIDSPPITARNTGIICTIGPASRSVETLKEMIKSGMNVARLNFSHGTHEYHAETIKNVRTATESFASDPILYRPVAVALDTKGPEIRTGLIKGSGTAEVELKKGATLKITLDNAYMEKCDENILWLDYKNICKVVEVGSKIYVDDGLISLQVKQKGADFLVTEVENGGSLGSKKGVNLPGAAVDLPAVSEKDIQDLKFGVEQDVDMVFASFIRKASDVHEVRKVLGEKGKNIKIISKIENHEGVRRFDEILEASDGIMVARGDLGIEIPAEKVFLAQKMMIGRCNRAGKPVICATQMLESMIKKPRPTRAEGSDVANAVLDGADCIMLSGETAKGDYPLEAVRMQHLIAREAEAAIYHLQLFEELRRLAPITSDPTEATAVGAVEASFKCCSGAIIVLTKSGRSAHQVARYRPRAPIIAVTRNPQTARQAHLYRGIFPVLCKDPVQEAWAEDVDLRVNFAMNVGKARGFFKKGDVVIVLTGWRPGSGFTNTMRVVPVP

Results are given in words; binding and its absence hold for the method and conditions named. Binding seen in cells or lysates may run through a third protein. Some results given as binding are weak or reduced against the parent protein; the word gives no strength. For some assays here: Sequences can lack the tags named with a protein.

B1: 3‐Hydroxyacyl‐CoA dehydratase 2 (HACD2), endogenous in PANC‐1 cells (protein, UniProt Q6Y1H2 1-254)
chain: MAAVAATAAAKGNGGGGGRAGAGDASGTRKKKGPGPLATAYLVIYNVVMTAGWLVIAVGLVRAYLAKGSYHSLYYSIEKPLKFFQTGALLEILHCAIGIVPSSVVLTSFQVMSRVFLIWAVTHSVKEVQSEDSVLLFVIAWTITEIIRYSFYTFSLLNHLPYLIKWARYTLFIVLYPMGVSGELLTIYAALPFVRQAGLYSISLPNKYNFSFDYYAFLILIMISYIPIFPQLYFHMIHQRRKILSHTEEHKKFE
As for B1, the binding entry in experiment [1] and in experiment [2] was “binds” each time.

B2: His‐HACD2 expressed in HEK‐293T cells (protein, UniProt Q6Y1H2 1-254)
chain: MAAVAATAAAKGNGGGGGRAGAGDASGTRKKKGPGPLATAYLVIYNVVMTAGWLVIAVGLVRAYLAKGSYHSLYYSIEKPLKFFQTGALLEILHCAIGIVPSSVVLTSFQVMSRVFLIWAVTHSVKEVQSEDSVLLFVIAWTITEIIRYSFYTFSLLNHLPYLIKWARYTLFIVLYPMGVSGELLTIYAALPFVRQAGLYSISLPNKYNFSFDYYAFLILIMISYIPIFPQLYFHMIHQRRKILSHTEEHKKFE
B2: in experiment [3], the binding entry is recorded as “no binding”.

B3: HACD2 overexpressed in PANC‐1 cells by transduction (protein, UniProt Q6Y1H2 1-254)
chain: MAAVAATAAAKGNGGGGGRAGAGDASGTRKKKGPGPLATAYLVIYNVVMTAGWLVIAVGLVRAYLAKGSYHSLYYSIEKPLKFFQTGALLEILHCAIGIVPSSVVLTSFQVMSRVFLIWAVTHSVKEVQSEDSVLLFVIAWTITEIIRYSFYTFSLLNHLPYLIKWARYTLFIVLYPMGVSGELLTIYAALPFVRQAGLYSISLPNKYNFSFDYYAFLILIMISYIPIFPQLYFHMIHQRRKILSHTEEHKKFE
For B3, the binding entry in experiment [2] was “binds”.

B4: His‐HACD2 expressed in PANC‐1 cells (protein, UniProt Q6Y1H2 1-254)
chain: MAAVAATAAAKGNGGGGGRAGAGDASGTRKKKGPGPLATAYLVIYNVVMTAGWLVIAVGLVRAYLAKGSYHSLYYSIEKPLKFFQTGALLEILHCAIGIVPSSVVLTSFQVMSRVFLIWAVTHSVKEVQSEDSVLLFVIAWTITEIIRYSFYTFSLLNHLPYLIKWARYTLFIVLYPMGVSGELLTIYAALPFVRQAGLYSISLPNKYNFSFDYYAFLILIMISYIPIFPQLYFHMIHQRRKILSHTEEHKKFE
Consider B4, for which the binding result in experiment [4] is “binds”.

Values taken from article PMC11904967.
